# This is one part of the list.
# Tests used:
# HSkMC = human skeletal muscle cells; experiment: cytotoxicity call (relative viability < 0.9); conditions: 10 µM
# HepG2 = experiment: cytotoxicity call (relative viability < 0.9); conditions: 10 µM
# S. aureus RN4220 = experiment: growth inhibition call (relative growth <= 0.2); conditions: 50 µM
SMILES,cytotoxicity call (HSkMC),cytotoxicity call (HepG2),growth inhibition call (S. aureus RN4220)
CCOc1cc2ncc(C#N)c(Nc3ccc(OCc4ccccn4)c(Cl)c3)c2cc1NC(=O)/C=C/CN(C)C,active,active,inactive
COCC(=O)N1CC(=O)N2[C@H](CO)[C@H](c3ccc(C#Cc4cccnc4)cc3)[C@H]2C1,inactive,inactive,inactive
CC(C)(N)CO.Cn1c(=O)c2[nH]c(Br)nc2n(C)c1=O,inactive,inactive,inactive
C[C@@H]1CCCCO[C@@H](CN(C)C(=O)Nc2ccc(F)cc2)[C@@H](C)CN([C@H](C)CO)C(=O)c2cc(NC(=O)C3CCCCC3)ccc2O1,inactive,inactive,inactive
CCC(=O)Nc1ccc2c(c1)OC[C@@H](C)N(C(=O)CN1CCOCC1)C[C@@H](C)[C@@H](OC)CN(C)C2=O,inactive,inactive,inactive
Cl.NC(CS)C(=O)O (configuration not stated),inactive,inactive,inactive
ON=C1/C(=N\O)CC2(C/C1=N/O)OCCO2,inactive,inactive,inactive
CC(C)NC(=O)N(C)C[C@H]1Oc2ccc(NC(=O)CCCN(C)C)cc2CC(=O)N([C@@H](C)CO)C[C@@H]1C,inactive,inactive,inactive
O=C(C[C@H]1CC[C@H]2[C@@H](COC[C@@H](O)CN2S(=O)(=O)c2cccc(F)c2)O1)NCCCN1CCOCC1,inactive,inactive,inactive

# — the antibiotic and cytotoxicity screens of Wong et al. (2023)
